Data from the supplement of paper PMC12889115.
The list shows a part of the results. No stated cut-off is given here; in the data, active = 25% or less and inactive = the rest. Many values rest on one well or one pass, so single values are uncertain.

Test system: Salmonella enterica serovar Typhimurium SL1344
Experiment: intramacrophage bacterial GFP load (SAFIRE), percent of DMSO control (% of DMSO); higher = more intracellular bacteria (less inhibition)
Conditions: 25 µM; system: infected RAW 264.7 macrophages
Description: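 Secondary screen of the 553 primary hits at 25 µM. (i) S. Typhimurium SL1344 grown in Mueller-Hinton broth with 0.5 µg/mL polymyxin B, OD600 read after 18 h. (ii) SAFIRE assay: RAW 264.7 macrophages infected with S. Typhimurium sifB::gfp (MOI 30); compound added 2 h post-infection; cells fixed at 18 h; GFP-positive pixel fraction per macrophage imaged by confocal microscopy and expressed as % of DMSO control.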
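Further: compounds tested were the hits of an earlier 50 µM broth growth screen of a drug-like diversity library run with polymyxin B.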

Intramacrophage bacterial GFP load, inactive:
CN(Cc1ccc(C(F)(F)F)cc1)C(=O)c1cn(Cc2ccc(F)cc2)nn1 80.5
COc1ccc2c(c1)NC(=O)C2CC(=O)N(Cc1ccncc1)Cc1cccc(OCCc2ccc(F)cc2)c1 (stereo unspecified) 62.3
COc1ccc2c(c1)OC(C)CN(C(=O)/C(F)=C/c1ccccc1)C2 (stereo unspecified) 42.2
COCc1ccc(C(=O)N2CCCC(CCc3ccccc3)C2)o1 (stereo unspecified) 94
CCC(C)Nc1ccc(-c2nc(CC(C)C)no2)cn1 (stereo unspecified) 122
CCOC(=O)C1CCCCN1C(=O)CC1(c2ccc(-c3ccccc3)cc2)CC(=O)N(C)C1=O (stereo unspecified) 66.2
